From the supplement of paper PMC10369915
Some of the results follow. Cut-off read from the data, not from the text of the source: active = 3.2 or more and inactive = the rest. Only a few entries rise above the background.

Columns and labels:
Test in all cases: enrichment score (SH2-bound / input frequency) (ratio); bacterial display of known human phosphotyrosine sites (pTyr-Var adds point mutants) read by sequencing; higher = stronger binding; tyrosines were phosphorylated by kinases first
Settings in all cases: peptide library: pTyr-Var
[1] = target: SHP2 C-SH2 domain E139D
[2] = target: SHP2 C-SH2 domain wild-type
[3] = target: SHP2 N-SH2 domain L43F
[4] = target: SHP2 N-SH2 domain T42A
[5] = target: SHP2 N-SH2 domain T52S
[6] = target: SHP2 N-SH2 domain wild-type

Measured: enrichment score
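Note: displayed peptides selected on beads carrying the immobilized SH2 domain, with library peptides lacking any tyrosine serving as negative controls.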

RDLHTYIMPAH [PNMT_Y256_R254H]
inactive: [1] 1.42 | [2] 1.39 | [3] 1.17 | [4] 1.03 | [5] 1.07 | [6] 1.22

DFPGIYSGYDD [POLR1C_Y33_N32I]
inactive: [1] 1.33 | [2] 0.819 | [3] 0.948 | [4] 0.905 | [5] 1.13 | [6] 0.919

ETLLFYGCRRS [POR_Y564_YF]
inactive: [1] 0.32 | [2] 0.336 | [3] 0.232 | [4] 0.357 | [5] 0.314 | [6] 0.37

LSCVIYVILRK [PMP22_Y153_G150C]
inactive: [1] 0.295 | [2] 0.495 | [3] 0.311 | [4] 0.383 | [5] 0.415 | [6] 0.514

DFPGIYSGFDD [POLR1C_Y33_N32I_YF]
inactive: [1] 1.11 | [2] 0.906 | [3] 0.937 | [4] 0.843 | [5] 0.961 | [6] 0.858

KVALLYKPFFF [POLE_Y100_P99L_YF]
inactive: [6] 3.17
active: [1] 3.51 | [2] 3.26 | [3] 3.43 | [4] 3.3 | [5] 3.46

GIFSGYDDAWD [POLR1C_Y36_N32I_YF]
inactive: [1] 0.915 | [2] 0.881 | [3] 0.75 | [4] 0.717 | [5] 0.73 | [6] 0.948

LLKAKYELLNA [POLR3A_Y714]
inactive: [1] 1.57 | [2] 1.11 | [3] 1.15 | [4] 1.35 | [5] 1.57 | [6] 1.23

SAAAIYTVRHP [PMP22_Y117]
inactive: [1] 0.744 | [2] 0.789 | [3] 0.721 | [4] 0.66 | [5] 0.793 | [6] 0.988

RSDEDYLFREE [POR_Y573_YF]
inactive: [1] 0.486 | [2] 0.639 | [3] 0.468 | [4] 0.559 | [5] 0.724 | [6] 0.489

GNFSGYDDAWD [POLR1C_Y36_YF]
inactive: [1] 0.71 | [2] 0.68 | [3] 0.673 | [4] 0.552 | [5] 0.665 | [6] 0.677

RSDEDYLYREE [POR_Y573]
inactive: [1] 0.386 | [2] 0.562 | [3] 0.354 | [4] 0.411 | [5] 0.598 | [6] 0.606

KVALPYKPYFY [POLE_Y100]
inactive: [1] 1.47 | [2] 1.5 | [3] 1.23 | [4] 0.956 | [5] 1.43 | [6] 1.31

GIYSGYDDAWD [POLR1C_Y36_N32I]
inactive: [1] 0.855 | [2] 0.638 | [3] 0.722 | [4] 0.74 | [5] 0.89 | [6] 0.799

LSGVIYVILGK [PMP22_Y153_R157G]
inactive: [1] 1.62 | [2] 2.12 | [3] 1.86 | [4] 1.6 | [5] 1.55 | [6] 2.4

LNTFHHAGVSA [POLR2A_Y1109_Y1109H]
inactive: [1] 1.52 | [2] 1.4 | [3] 1.51 | [4] 1.38 | [5] 1.6 | [6] 1.24

ETLLFYGFRRS [POR_Y564_C566Y_YF]
inactive: [1] 0.224 | [2] 0.326 | [3] 0.266 | [4] 0.314 | [5] 0.456 | [6] 0.248

DEDYLYREELA [POR_Y575]
inactive: [1] 0.772 | [2] 0.707 | [3] 0.713 | [4] 0.595 | [5] 0.818 | [6] 0.855

DFPGNYSGFDD [POLR1C_Y33_YF]
inactive: [1] 0.683 | [2] 0.602 | [3] 0.528 | [4] 0.458 | [5] 0.526 | [6] 0.574
